# Measurements reported in PubChem BioAssay (NCATS).
# Inconclusive means that the source gave no clear call. Such entries were picked first, then a sample of the others. No potency is given beside an inconclusive call; the fits are too rough. Active and inactive are the calls of the source. The call rests on the fitted dose curve; in most records, active means well fitted curve in the direction sought with a large enough effect; inconclusive means small, poorly fitted or top-dose-only effect, or another doubt; inactive means no such curve, though single readings can be large; an effect the other way counts as inactive or inconclusive.
# System: not listed separately
# Experiment: qHTS for Inhibitors of the vitamin D receptor (VDR): Hit Validation using a Texas Red Assay (AID 602201)
# Settings: VDR coregulator binding, Texas Red fluorescence polarization; series mostly up to 57.1 µM
# In short: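 After a 2-hour room-temperature incubation, polarization of Texas-Red emission was read (Ex 595 nm/Em 615 nm). Final mix contained 7 nM Texas Red, 1.5 uM VDR-LBD and LG19078.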
# Potency means the concentration at half of the fitted maximal effect; tags describe the fitted curve by direction and shape.
row,Compound,Potency
1,O=[N+]([O-])c1ccc(Sc2nc3ccccc3o2)c([N+](=O)[O-])c1,"inconclusive [inhibitor, partial curve]"
2,CCOc1ccc(N2C(=O)NC(=O)/C(=C\c3ccccc3[N+](=O)[O-])C2=O)cc1,"inconclusive [inhibitor, single point]"
3,O=C1NC(=S)NC(=O)C1=Cc1ccc(OCC(=O)N2CCCC2)cc1,"inconclusive [inhibitor, partial curve]"
4,CCOc1ccc(N2C(=O)NC(=O)/C(=C\c3cc(OC)c(OC)cc3[N+](=O)[O-])C2=O)cc1,"inconclusive [inhibitor, full curve]"
5,COc1ccc(/C=C2/C(=O)NC(=S)N(C3CC3)C2=O)cc1CN1C(=O)c2ccccc2C1=O,"inconclusive [inhibitor, partial curve, poor fit]"
6,COC(=O)C1=Nc2ccccc2/C1=C\c1c(O)n(-c2ccc(Br)cc2)c(=O)[nH]c1=O,"inconclusive [inhibitor, partial curve, poor fit]"
7,N#CC1c2ccccc2-n2nncc2CN1Cc1cc(Cl)cc(Cl)c1 (configuration not stated),"inconclusive [inhibitor, full curve]"
8,Cc1ccnc(-n2c(C)cc(/C=C3\C(=O)NC(=S)N(C)C3=O)c2C)c1,"inconclusive [inhibitor, partial curve]"
9,COc1cc(/C=C2\C(=O)NC(=O)N(c3ccccc3)C2=O)c([N+](=O)[O-])cc1OC,"inconclusive [inhibitor, partial curve]"
10,O=C1NC(=O)N(c2ccccc2)C(=O)/C1=C/c1ccc([N+](=O)[O-])s1,inactive
11,C/C(=C\c1ccc(N(C)C)cc1)[N+](=O)[O-],"inconclusive [inhibitor, full curve]"
12,CN(C)c1ccc(C=C2C(=O)NC(=S)NC2=O)cc1[N+](=O)[O-],"inconclusive [inhibitor, full curve, poor fit]"
13,CN1C(=O)C(=Cc2ccccc2Oc2ccc(Cl)cc2)C(=O)N(C)C1=O,"inconclusive [inhibitor, partial curve]"
14,O=C1NC(=O)N(CCC2=CCCCC2)C(=O)/C1=C\c1cccs1,"inconclusive [inhibitor, full curve, poor fit]"
15,CN1C(=O)C(=Cc2ccccc2OS(=O)(=O)c2ccccc2)C(=O)N(C)C1=O,"inconclusive [inhibitor, partial curve]"
16,COC(=O)COc1ccc(/C=C2\C(=O)NC(=S)N(c3ccc(C)cc3)C2=O)cc1OC,inactive
17,CN1CCC(O)(c2cccs2)C(C(=O)c2cccs2)C1 (configuration not stated),active: 28.2 µM
18,CN1C(=O)N(C)C(=O)C2(Sc3ccccc3C2=O)C1=O,"inconclusive [inhibitor, full curve]"
19,O=C1NC(=O)C(=Cc2ccccc2OCCOc2ccc([N+](=O)[O-])cc2)C(=O)N1,"inconclusive [inhibitor, full curve]"
20,O=C(O)CCn1cc(C=C2C(=O)NC(=S)NC2=O)c(-c2cccc(Br)c2)n1,inactive

# Biological target: Vitamin D3 receptor (Homo sapiens) (UniProt P11473)
# Chain of UniProt P11473 (P11473 whole entry, looked up): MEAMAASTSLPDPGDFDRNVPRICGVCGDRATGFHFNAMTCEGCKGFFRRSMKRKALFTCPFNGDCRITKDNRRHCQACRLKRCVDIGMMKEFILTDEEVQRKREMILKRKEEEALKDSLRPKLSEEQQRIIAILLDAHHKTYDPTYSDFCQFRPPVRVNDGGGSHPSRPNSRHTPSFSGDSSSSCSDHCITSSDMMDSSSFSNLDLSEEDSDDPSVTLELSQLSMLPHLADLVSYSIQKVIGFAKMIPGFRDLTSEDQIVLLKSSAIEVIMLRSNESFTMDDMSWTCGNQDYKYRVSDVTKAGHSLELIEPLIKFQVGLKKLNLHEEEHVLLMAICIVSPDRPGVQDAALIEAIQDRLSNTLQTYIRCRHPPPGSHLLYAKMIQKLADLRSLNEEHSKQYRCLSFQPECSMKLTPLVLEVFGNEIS
# Experiment: qHTS for Inhibitors of the vitamin D receptor (VDR): Hit Validation using a Beta-Lactamase Assay (AID 602202)
# Settings: VDR beta-lactamase reporter cells, FRET ratio; series mostly up to 46.1 µM
# In short: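 Beta-lactamase reporter read-out (447 nm emission of cleaved FRET substrate, 2 h) after 18 h compound exposure of HEK293 cells carrying a VDR-GAL4 fusion and UAS reporter, stimulated with LG190178.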
row,Compound,Potency
1,O=[N+]([O-])c1ccc(Sc2nc3ccccc3o2)c([N+](=O)[O-])c1,"inconclusive [inhibitor, single point]"
2,O=C1NC(=S)NC(=O)C1=Cc1ccc(OCC(=O)N2CCCC2)cc1,inactive
3,CN1C(=O)C(=Cc2ccccc2OS(=O)(=O)c2ccccc2)C(=O)N(C)C1=O,inactive
4,CN1CCC(O)(c2cccs2)C(C(=O)c2cccs2)C1 (configuration not stated),"inconclusive [inhibitor, single point]"

# System: not listed separately
# Experiment: qHTS for Inhibitors of the vitamin D receptor (VDR): Hit Validation using a Cytotoxicity Assay (AID 602204); further: nearly all actives have a fitted effect of over 75% in size;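 on potency: cells co-treated with VDR agonist LG190178 at 300 nM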
# Settings: cytotoxicity counter-screen, cell viability; series mostly up to 48.3 µM
# In short: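 Each well held 20,000 cells, incubated 4 h before compounds went in. An 18 h treatment preceded addition of ATP-sensing luminescent reagent, with reading after 30 min; cycloheximide and DMSO controlled the window.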
row,Compound,Potency
1,O=C(O)/C=C/C(=O)c1ccc2c(c1)CCc1ccccc1-2,"inconclusive [cytotoxic, single point]"
2,CCOc1ccc(N2C(=O)NC(=O)/C(=C\c3ccccc3[N+](=O)[O-])C2=O)cc1,inactive
3,COc1ccc(/C=C2/C(=O)NC(=S)N(C3CC3)C2=O)cc1CN1C(=O)c2ccccc2C1=O,"inconclusive [rising, partial curve, poor fit]"
4,COC(=O)C1=Nc2ccccc2/C1=C\c1c(O)n(-c2ccc(Br)cc2)c(=O)[nH]c1=O,inactive
5,N#CC1c2ccccc2-n2nncc2CN1Cc1cc(Cl)cc(Cl)c1 (configuration not stated),active: 4.11 µM
6,CCN1C(=O)/C(=C\C(=O)c2cccs2)c2cc(Br)ccc21,"inconclusive [cytotoxic, single point]"
7,CS(=O)(=O)c1ncc(Cl)c(C(=O)Nc2ccc3ccccc3c2)n1,"inconclusive [cytotoxic, partial curve, poor fit]"
8,COc1cc(/C=C2\C(=O)NC(=O)N(c3ccccc3)C2=O)c([N+](=O)[O-])cc1OC,inactive
9,C/C(=C\c1ccc(N(C)C)cc1)[N+](=O)[O-],"inconclusive [cytotoxic, partial curve]"
10,CN1C(=O)C(=Cc2ccccc2Oc2ccc(Cl)cc2)C(=O)N(C)C1=O,inactive
11,COc1ccc(C(=O)/C=C2/C(=O)Nc3ccccc32)c(OC)c1,active: 12.6 µM
12,O=C1NC(=O)N(CCC2=CCCCC2)C(=O)/C1=C\c1cccs1,inactive
13,CN1C(=O)C(=Cc2ccccc2OS(=O)(=O)c2ccccc2)C(=O)N(C)C1=O,inactive
14,COC(=O)COc1ccc(/C=C2\C(=O)NC(=S)N(c3ccc(C)cc3)C2=O)cc1OC,inactive
15,COc1ccc([N+](=O)[O-])c(S(=O)(=O)c2ccc(Cl)cc2)n1,"inconclusive [cytotoxic, partial curve, poor fit]"
16,CN1CCC(O)(c2cccs2)C(C(=O)c2cccs2)C1 (configuration not stated),"inconclusive [cytotoxic, single point]"
17,O=[N+]([O-])/C=C/c1cn(Cc2ccc(Cl)cc2)c2ccccc12,"inconclusive [cytotoxic, single point]"
18,O=C1NC(=O)C(=Cc2ccccc2OCCOc2ccc([N+](=O)[O-])cc2)C(=O)N1,"inconclusive [rising, partial curve, poor fit]"
